Results as given in PubChem BioAssay AID624417 (National Center for Advancing Translational Sciences (NCATS), 2012).
The whole screen tested about 410,000 compounds, of which about 6,400 (1.6%) were called active. The shares of active, inactive and inconclusive entries below differ from those in the screen. Calls come from the whole dose curve; as a rule, active = well fitted inhibition curve with a large enough effect; inconclusive = small, poorly fitted or top-dose-only effect; inactive = no such curve, though single readings can be large or run the other way. Where the call is inconclusive, the potency comes from a doubtful curve fit.

Target: Glucagon-like peptide 1 receptor (Homo sapiens) (UniProt P43220)
UniProt P43220, sequence (P43220 whole entry, looked up): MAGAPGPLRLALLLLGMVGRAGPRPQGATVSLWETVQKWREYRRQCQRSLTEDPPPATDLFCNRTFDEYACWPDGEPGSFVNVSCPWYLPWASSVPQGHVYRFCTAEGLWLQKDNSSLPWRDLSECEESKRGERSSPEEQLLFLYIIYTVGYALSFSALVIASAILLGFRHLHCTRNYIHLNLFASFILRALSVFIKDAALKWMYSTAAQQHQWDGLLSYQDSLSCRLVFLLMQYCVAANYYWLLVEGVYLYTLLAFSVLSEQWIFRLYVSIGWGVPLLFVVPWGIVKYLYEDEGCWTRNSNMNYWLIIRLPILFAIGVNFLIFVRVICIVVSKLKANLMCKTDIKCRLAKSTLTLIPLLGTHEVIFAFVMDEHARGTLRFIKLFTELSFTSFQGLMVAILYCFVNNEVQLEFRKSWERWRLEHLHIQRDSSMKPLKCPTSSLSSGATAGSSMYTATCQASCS
Experiment: qHTS of GLP-1 Receptor Inverse Agonists (Inhibition Mode); note: nearly all actives have a fitted effect of over 55% in size
Settings: HEK293 GLP-1R CRE-luciferase, luminescence, 24 h, GLP-1R form is constitutively active; activity change, negative = inhibition: at 38.3 µM (top of the series) unless noted
Method in brief: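 HEK293 cells stably co-expressing a cAMP-responsive luciferase reporter and constitutively active GLP-1R were seeded, incubated 12 h, then exposed to compounds for 24 h at 37 C. Luminescence was read 12 min after detection reagent; inverse agonists lower signal.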
% is set by controls: 0 for no effect and ±100 for the full control effect; potency is the fitted concentration of half-maximal effect; tags give direction and shape of the fitted curve.

Potency, inconclusive:
Cc1ccc(S(=O)(=O)N2CCC(=O)N(C(COCc3ccc(Cl)cc3)C(C)C)CC2)cc1 (stereo not drawn) 10 µM [inhibitor, single point]
COc1ccc(NC(=O)c2cnn(-c3ccc(C)c(C)c3)c2C2CCNCC2)cc1OC 11.2 µM [inhibitor, single point]
Cn1c(/N=C(\N)c2ccccc2)nc2ccccc21 11.2 µM [inhibitor, single point]
CN(C)CCNC(C(=O)Nc1cc(Cl)cc(Cl)c1)c1ccccc1 (stereo not drawn) 8.91 µM [inhibitor, partial curve, poor fit]
CSc1nc(N)c(C#N)c(-c2ccc(Cl)cc2)c1C#N 12.6 µM [inhibitor, partial curve, poor fit]
Cn1nc(C(C)(C)C)cc1C(=O)NCc1cc(F)cc2c1OCOC2 3.98 µM [inhibitor, partial curve, poor fit]
O=C(CNc1cccc([N+](=O)[O-])c1)N1CCN(S(=O)(=O)c2ccc(Cl)cc2)CC1 11.2 µM [inhibitor, single point]
COc1ccc(Cl)cc1NC(=O)CC1S/C(=N/N=C2CCCCCC2)NC1=O (stereo not drawn) 28.2 µM [inhibitor, single point]
O=C(c1ccc(CS(=O)(=O)c2ccc(Br)cc2)o1)N1CCN(c2ccc(F)cc2)CC1 31.6 µM [inhibitor, single point]
O=C(NCCc1ccco1)C(=O)NCCC1CCCCN1S(=O)(=O)c1ccccc1 (stereo not drawn) 28.2 µM [inhibitor, single point]
O=C(Nc1nc2ccc(F)cc2s1)C1CC(=O)N(c2ccc3c(c2)OCCO3)C1 (stereo not drawn) 12.6 µM [inhibitor, single point]
CCOC(=O)C1=C[C@@H](CC)N(S(=O)(=O)c2ccc(C)cc2)[C@H]1c1ccccc1 15.8 µM [inhibitor, single point]
Cc1ccccc1OCCC(=O)Nc1cccc(S(=O)(=O)Nc2ccccc2Cl)c1 2.51 µM [inhibitor, full curve]

Activity change, negative = inhibition, inactive:
Cc1ccc(N(C)S(=O)(=O)c2ccc3[nH]c(=O)ccc3c2)cc1 13%
CC1(C)Cc2ccccc2-c2n[nH]c(=S)n21 5.54%
CCC(=O)NC(=S)Nc1ccc(NC(=O)c2ccco2)cc1 18.7%
COc1ccc(NC(=O)C2=NNC(=O)CC2)cc1S(=O)(=O)N1CCCCC1 33.5%
COC(=O)c1ccc(CSc2c(C(C)C)cnc3c2c(=O)n(C)c(=O)n3C)cc1 20%
